The supplement of paper PMC4967469
The IC50 comes from the fitted curve, where viability falls to half of the control; a limit (>, <) means that the fit lies beyond the doses tested. AUC is the area under the same curve over the 256-fold range up to the top dose, as a fraction; values near 1 show little effect. For some of these results: The top dose, if marked as inferred, comes from the curve model; the source does not state it. For some of these results: An entry number marks a drug with two screens in the source, which often give different values.

Assays:
Assay in all cases: Viability of human cancer cell lines after 72 h of drug (GDSC screen)
SNX-2112 = compound: CC1(C)CC(=O)c2c(C(F)(F)F)nn(-c3ccc(C(N)=O)c(N[C@H]4CC[C@H](O)CC4)c3)c2C1 [SNX-2112]; conditions: top dose 2.56 µM
Method: (§1)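 Human cancer cell lines in 384-well plates, medium with 10% serum, drug for 72 h over a 256-fold dose range (nine 2-fold or five 4-fold steps up to the top dose). Adherent lines were fixed and stained with the nucleic acid dye Syto60, suspension lines read with resazurin; signal relative to control wells, capped at 0 and 100%. One two-parameter sigmoid per drug and line, fitted in a mixed model over all curves with the slope shared within a line.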

Vinblastine = compound: CC[C@]1(O)C[C@@H]2CN(CCc3c([nH]c4ccccc34)[C@@](C(=O)OC)(c3cc4c(cc3OC)N(C)[C@H]3[C@@](O)(C(=O)OC)[C@H](OC(C)=O)[C@]5(CC)C=CCN6CC[C@]43[C@@H]65)C2)C1 [Vinblastine]; conditions: top dose 0.1 µM; top dose inferred
Method: as §1

Afatinib = compound: CN(C)C/C=C/C(=O)Nc1cc2c(Nc3ccc(F)c(Cl)c3)ncnc2cc1O[C@H]1CCOC1 [Afatinib]
Method: as §1

PF-562271 = compound: CN(c1ncccc1CNc1nc(Nc2ccc3c(c2)CC(=O)N3)ncc1C(F)(F)F)S(C)(=O)=O [PF-562271]; conditions: top dose 2.56 µM; top dose inferred
Method: as §1

XMD13-2 = compound: O=C(NC1CC1)c1cccc(-c2ccc3c(NC(=O)C4CC4)n[nH]c3c2)c1 [XMD13-2]; conditions: top dose 10.24 µM; top dose inferred
Method: as §1

[1] = top dose 0.5 µM, screen: GDSC drug entry 1032
[2] = top dose 10 µM, screen: GDSC drug entry 1377, top dose inferred

Row | Cell Line | AUC (SNX-2112) | IC50 (SNX-2112) [nM] | AUC (Vinblastine) | IC50 (Vinblastine) [nM] | AUC (Afatinib; [1]) | IC50 (Afatinib; [1]) [nM] | AUC (Afatinib; [2]) | IC50 (Afatinib; [2]) [nM] | AUC (PF-562271) | IC50 (PF-562271) [nM] | AUC (XMD13-2) | IC50 (XMD13-2) [nM]
1 | KON (head and neck, adherent) | 0.968 | > 2560 | 0.487 | 5.77 | 0.925 | > 500 | 0.906 | > 10000 | 0.82 | 1430 | 0.98 | > 10200
2 | KOPN-8 (B-cell leukaemia, suspension) | 0.21 | 26.5 | 0.428 | 4.1 | 0.989 | > 500 | 0.989 | > 10000 | 0.907 | > 2560 | 0.617 | 1280
3 | KP-2 (pancreas, adherent) | 0.825 | 1700 | 0.581 | 10.6 | 0.968 | > 500 | 0.895 | > 10000 | 0.936 | > 2560 | 0.942 | > 10200
4 | KP-3 (pancreas, adherent) | 0.663 | 496 | 0.738 | 34.5 | 0.972 | > 500 | 0.91 | > 10000 | 0.958 | > 2560 | 0.948 | > 10200
5 | KP-N-YN (neuroblastoma, adherent) | 0.807 | 1460 | 0.787 | 47.9 | 0.984 | > 500 | 0.979 | > 10000 | 0.963 | > 2560 | 0.964 | > 10200
6 | KS-1 (glioma, adherent) | 0.35 | 55.2 | 0.557 | 9.31 | 0.924 | > 500 | 0.883 | > 10000 | 0.88 | > 2560 | 0.875 | > 10200
7 | KU812 (chronic myeloid leukaemia, suspension) | 0.111 | 10.3 | 0.686 | 19.7 | 0.983 | > 500 | 0.963 | > 10000 | 0.96 | > 2560 | 0.698 | 2180
8 | KU-19-19 (bladder, adherent) | 0.86 | 2140 | 0.687 | 20.9 | 0.889 | > 500 | 0.986 | > 10000 | 0.969 | > 2560 | 0.973 | > 10200
9 | KURAMOCHI (ovary, adherent) | 0.798 | 1440 | 0.691 | 23.6 | 0.973 | > 500 | 0.939 | > 10000 | 0.881 | > 2560 | 0.979 | > 10200
10 | KY821 (leukaemia, suspension) | 0.409 | 93.6 | 0.486 | 5.74 | 0.976 | > 500 | 0.991 | > 10000 | 0.981 | > 2560 | 0.975 | > 10200
11 | KYM-1 (rhabdomyosarcoma, adherent) | 0.868 | 1780 | 0.432 | 4.2 | 0.961 | > 500 | 0.981 | > 10000 | 0.982 | > 2560 | 0.952 | > 10200
12 | KYSE-50 (oesophagus, adherent) | 0.657 | 418 | 0.655 | 16.1 | 0.922 | > 500 | 0.934 | > 10000 | 0.843 | 1590 | 0.929 | > 10200
13 | KYSE-70 (oesophagus, adherent) | 0.905 | > 2560 | 0.747 | 34.7 | 0.986 | > 500 | 0.968 | > 10000 | 0.966 | > 2560 | 0.952 | > 10200
14 | KYSE-140 (oesophagus, adherent) | 0.41 | 87.5 | 0.782 | 47.8 | 0.608 | 64.4 |  |  | 0.919 | > 2560 | 0.887 | > 10200
15 | KYSE-150 (oesophagus, adherent) | 0.733 | 715 | 0.8 | 46.2 | 0.989 | > 500 | 0.974 | > 10000 | 0.83 | 1510 | 0.968 | > 10200
16 | KYSE-220 (oesophagus, adherent) | 0.609 | 324 | 0.573 | 10 | 0.786 | 228 | 0.789 | 4700 | 0.914 | > 2560 | 0.901 | > 10200
17 | KYSE-410 (oesophagus, adherent) | 0.782 | 1140 | 0.483 | 5.61 | 0.657 | 88 | 0.79 | 4790 | 0.841 | 1950 | 0.956 | > 10200
18 | KYSE-450 (oesophagus, adherent) | 0.276 | 38.7 | 0.592 | 11 | 0.695 | 106 | 0.226 | 106 | 0.919 | > 2560 | 0.811 | 5060
19 | KYSE-510 (oesophagus, adherent) | 0.717 | 579 | 0.447 | 4.6 | 0.986 | > 500 | 0.926 | > 10000 | 0.859 | 1570 | 0.973 | > 10200
20 | KYSE-520 (oesophagus, adherent) | 0.729 | 916 | 0.7 | 28 | 0.92 | > 500 | 0.975 | > 10000 | 0.929 | > 2560 | 0.963 | > 10200
21 | L-363 (myeloma, suspension) | 0.377 | 77.2 | 0.538 | 7.79 | 0.977 | > 500 | 0.978 | > 10000 | 0.949 | > 2560 | 0.874 | 7670
